# Test results: PubChem BioAssay (Tox21)
# “And” between values parts separate entries of the source, which are not always exact repeats. Identical values can stand only once. Inconclusive results, whose numbers are uncertain, are shown with a selection of clear calls. A potency beside an inconclusive call is a rough fit, not a confirmed value. A structure can be active in one record and inactive in another. The source made the active and inactive calls. Calls come from the whole dose curve; as a rule, active = well fitted cell-killing curve with a large enough effect in the repeat runs; inconclusive = weak or mixed curves; inactive = flat fitted curve, though single readings scatter.
# Assay: qHTS assay to identify small molecule antagonists of the estrogen related receptor (ERR) signaling pathway from Tox21 library - cell viability counter screen (AID 1224834); note: nearly all actives have a fitted effect of over 30% in size
# Details: ERR reporter cells viability, CellTiter-Fluor, 17.5 h; series mostly up to 92.4 µM
# Text: National Center for Advancing Translational Sciences [NCATS]
# NIH Chemical Genomics Center [NCGC]
# U.S. Environmental Protection Agency [EPA]
# National Institutes of Environmental Health Sciences [NIEHS]
# National Toxicology Program [NTP]
# U.S. Food and Drug Administration [FDA]
# Estrogen related receptors (ERRs), the first orphan nuclear receptors discovered, play an important role in the control of cellular energy metabolism. ERRs are required for high-energy production in response to the environmental challenges. ERR-alpha was also identified as an adverse marker for breast cancer progression; ERR-alpha-positive tumors have a poor prognosis. To screen and to identify environmental compounds that perturb the ERR signaling pathways could provide valuable information for potential therapeutic or preventive measures in the treatment of metabolic disease. To differentiate true ERR antagonists or agonist from cytotoxic substances, the assay is multiplexed with cell viability assay.
# Tox21 Assay Protocol Summary:
# The ERR cells were dispensed at 2,000 cells/5 ul/well in 1536-well white plates using a Multidrop dispenser. After the assay plates were incubated at a 37 C/5% CO2 incubator for 6 hours, 23 nL of compounds dissolved in DMSO, positive and negative controls or DMSO only was transferred to the assay plate by a pin tool. The plates were incubated at 37 C for 17.5 hours. 1 ul/well of CellTiter-Fluor reagent was added into the assay plates using a Flying Reagent Dispenser. After 30-minute incubation at 37 C/5% CO2, the fluorescence intensity in the plates was measured using a ViewLux plate reader.
# Potency is the fitted concentration of half-maximal effect; tags give direction and shape of the fitted curve.
row,SMILES,Potency
1,O=c1c(O)c(-c2ccc(O)cc2)oc2cc(O)cc(O)c12,"inconclusive: 60.9 µM [cytotoxic, partial curve] and inconclusive: 36.8 µM [cytotoxic, partial curve, poor fit]"
2,CC(C)(c1cc(Br)c(O)c(Br)c1)c1cc(Br)c(O)c(Br)c1,"inconclusive: 68.4 µM [cytotoxic, single point]"
3,Oc1ccc(C2(c3ccc(O)cc3)CC3CC2C2CCCC32)cc1 (stereo not given),active: 58.7 µM
4,CN(C)CCCN1c2ccccc2Sc2ccc(Cl)cc21,active: 54.5 µM and active: 26.6 µM
5,C[C@@H](NCCCc1cccc(C(F)(F)F)c1)c1cccc2ccccc12,active: 29.8 µM
6,CCCCCCCCCCCCCCCCCCNC(=O)OC1CCN(C(=O)OC[C@H](COC(=O)N(Cc2cccc[n+]2CC)C(=O)c2ccccc2OC)OC)CC1,active: 26.6 µM
7,CC(Cc1ccc(O)c(O)c1)C(C)Cc1ccc(O)c(O)c1 (stereo not given),"inconclusive: 68.6 µM [cytotoxic, single point]"
8,COc1cc([C@@H]2c3cc4c(cc3[C@H](O)[C@H]3COC(=O)[C@H]23)OCO4)cc(OC)c1OC,"inconclusive: 54.4 nM [cytotoxic, full curve, poor fit] and inconclusive: 26.6 nM [cytotoxic, full curve]"
9,Nc1ccc2c(c1)C(=O)c1ccccc1C2=O,"inconclusive: 60 µM [cytotoxic, single point] and inconclusive: 21.7 µM [cytotoxic, partial curve, poor fit]"
10,COc1ccc(CCN2CCC(Nc3nc4ccccc4n3Cc3ccc(F)cc3)CC2)cc1,active: 22.2 µM and active: 26.6 µM
11,CCCCCCCCCCCC(=O)NCCCN(C)C,"inconclusive: 68.6 µM [cytotoxic, single point]"
12,CCCC(=O)c1cc(O)c(O)cc1O,active: 43.3 µM
13,CCCCCCCCCCCCN1CCCC1=O,"inconclusive: 48.6 µM [cytotoxic, partial curve]"
14,CC(=O)OC/C=C(C)/C=C/C=C(C)/C=C/C1=C(C)CCCC1(C)C,"inconclusive: 53.2 µM [cytotoxic, partial curve] and inconclusive: 68.6 µM [cytotoxic]"
15,CCCCCCCC/C=C\CCCCCCCC(=O)N(CCO)CCO,"inconclusive: 60.9 µM [cytotoxic, single point]"
16,COC(=O)c1c(Cl)c(Cl)c(C(=O)OC)c(Cl)c1Cl,"inconclusive: 0.243 µM [cytotoxic, single point]"
17,CC(C)(C)NC(=O)[C@H]1CC[C@H]2[C@@H]3CC[C@H]4NC(=O)C=C[C@]4(C)[C@H]3CC[C@]12C,"inconclusive: 76.1 µM [cytotoxic, single point]"
18,O=Nc1ccc(Nc2ccccc2)cc1,active: 19.4 µM and active: 24.3 µM
19,NC1(c2ccc(-c3nc4ccn5c(=O)[nH]nc5c4cc3-c3ccccc3)cc2)CCC1,active: 13.3 µM
20,NC(=O)N/N=C/c1ccc([N+](=O)[O-])o1,"inconclusive: 23.7 µM [cytotoxic, partial curve]"

row,SMILES,Potency
1,O=C1CN(/N=C/c2ccc([N+](=O)[O-])o2)C(=O)N1,"inconclusive: 33.5 µM [cytotoxic, single point]"
2,CCCCCCOC(=O)c1ccc(O)cc1,"inconclusive: 54.5 µM [cytotoxic, partial curve] and inconclusive: 48.6 µM [cytotoxic, partial curve]"
3,C=CC(=O)OCC(O)COc1ccccc1 (stereo not given),inconclusive: 77 µM [cytotoxic]
4,CC(=O)O[C@]1(C(C)=O)CC[C@H]2[C@@H]3C=C(Cl)C4=CC(=O)[C@@H]5C[C@@H]5[C@]4(C)[C@H]3CC[C@@]21C,"inconclusive: 54.4 µM [cytotoxic, partial curve] and inconclusive: 54.5 µM [cytotoxic, partial curve] and inconclusive: 21.1 µM [cytotoxic, partial curve]"
5,COc1ccc(N)c(C)c1,inactive
6,CCCSS/C(CCO)=C(\C)N(C=O)Cc1cnc(C)nc1N,"inconclusive: 0.298 µM [cytotoxic, single point]"
7,Clc1ccc(C(c2ccccc2Cl)C(Cl)Cl)cc1 (stereo not given),"inconclusive: 61.1 µM [cytotoxic, partial curve]"
8,Oc1ccc2cc(SSc3ccc4cc(O)ccc4c3)ccc2c1,"inconclusive: 68.7 µM [cytotoxic, single point]"
9,COc1cc(/C=C/C(=O)CC(=O)/C=C/c2ccc(O)c(OC)c2)ccc1O,active: 21.8 µM
10,N#CSCSc1nc2ccccc2s1,active: 61.1 µM
11,CC1CC(OC(=O)c2ccccc2O)CC(C)(C)C1 (stereo not given),inactive
12,Nc1ccc(N)c2ccccc12,active: 30.6 µM
13,O=c1n(CC2CO2)c(=O)n(CC2CO2)c(=O)n1CC1CO1 (stereo not given),"inconclusive: 54.5 µM [cytotoxic, partial curve]"
14,Cc1ccc(-c2cc(C(F)(F)F)nn2-c2ccc(S(N)(=O)=O)cc2)cc1,"inconclusive: 29.8 µM [cytotoxic, partial curve]"
15,CC[C@]12CCCN3CCc4c(n(c5ccccc45)[C@@](O)(C(=O)OC)C1)[C@@H]32,inconclusive: 61.1 µM [cytotoxic]
16,O=C(Nc1cccc(C(F)(F)F)c1)c1cc(Br)cc(Br)c1O,"inconclusive: 6.11 µM [cytotoxic, full curve]"
17,CC(C)(c1ccc(O)cc1)c1ccc(O)cc1,"inconclusive: 60.4 µM [cytotoxic, partial curve] and inconclusive: 27.8 µM [cytotoxic]"
18,CSc1ccc2c(c1)C(N1CCN(C)CC1)Cc1ccccc1S2 (stereo not given),"inconclusive: 29.8 µM [cytotoxic, single point]"
19,COc1ccc(-c2ccc3cc(C(=O)O)ccc3c2)cc1C12CC3CC(CC(C3)C1)C2,"inconclusive: 13.3 µM [cytotoxic, single point]"
20,O=C(c1ccc(O)cc1O)c1ccc(O)cc1O,"inconclusive: 68.7 µM [cytotoxic, partial curve] and inconclusive: 54.5 µM [cytotoxic, partial curve]"
